Measurements from PubChem BioAssay AID743279 (National Center for Advancing Translational Sciences (NCATS), 2014).
Screen size: about 360,000 compounds; about 17,000 (4.7%) were called active. The inconclusive results got no clear call from the source; some entries with a clear call stand among them for comparison. Cut-off read from the data, not from the text of the source: active = activity change below about -50%; inconclusive = mostly about -30% to -49%; inactive = weaker than that.

assay: qHTS for Inhibitors of Inflammasome Signaling: IL-1-beta AlphaLISA Primary Screen; conditions: THP-1 LPS/ATP IL-1B secretion, 16 h; at 57.5 µM, hits give low values
Outline: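 Secreted IL-1B measured by AlphaLISA bead assay after 16 h compound exposure of THP-1 cells; compounds (final up to 57.5 uM) added 1 h before LPS (250 ng/mL) and ATP (1.25 mM) stimulation; lower signal means less secretion.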
% is set by controls: 0 for no effect and ±100 for the full control effect.

Activity change, inactive:
Cc1ccc(C)c(N(CC(=O)NCCc2ccccc2)C(=O)CCC(=O)Nc2ccccn2)c1 -12%, COCCNC(=O)C1(C)CCCN(Cc2cc(C(F)(F)F)ccc2Cl)C1 (configuration not stated) 15.2%, CCOC(=O)c1cc2sccc2n1CC(=O)c1ccc2c(c1)OCCO2 12.7%, COc1ccc(CCCNC(=O)C2(C)Cc3c(-c4cccc(C(N)=O)c4)ccnc3O2)cc1 (configuration not stated) 18.3%, CC1(C)Cc2cccc(OCC(=O)Nc3ccccc3F)c2O1 16.8%, COc1ccc(NC(=O)NNC(=O)c2ccc(Cl)cc2Cl)cc1OC -2.83%, CC(NS(=O)(=O)c1ccccc1)C(c1cccs1)N1CCOCC1 (configuration not stated) 3.53%, Cc1ccc(N(C(=O)Cn2nnc(-c3ccccc3)n2)C(C(=O)NC2CCCCC2)c2ccccn2)cc1C (configuration not stated) 0%, O=C(COC(=O)C1CC1)NCCc1ccc(Cl)cc1 -19.8%, CCOc1ccc(C(=O)Nc2nnc(S(=O)(=O)N(C)Cc3ccco3)s2)cc1 -0.953%, CCOC(=O)c1nn(-c2ccccc2)c(C#N)c1NC(=O)c1nn(CC)cc1Br -13.5%, Cc1c(C(=O)NCc2ccc3c(c2)OCCO3)sc(=O)n1Cc1ccc2c(c1)OCO2 -8.26%, O=C1C2CC=CCC2C(=O)N1Cc1nnc(-c2ccccc2Br)o1 (configuration not stated) 0.158%, O=C(O)CC1(CC(=O)Nc2ccc(C(F)(F)F)cc2)CCCC1 35.2%, C[n+]1cccc(C(=O)NNC(=O)C23CC4CC(CC(C4)C2)C3)c1 -0.875%, Cc1cc(C)c2oc(C(=O)NCCc3ccc(S(N)(=O)=O)cc3)cc(=O)c2c1 -10.5%, CCn1c(NCc2ccccc2NS(=O)(=O)c2ccc(C)cc2)nc2ccccc21 -12.6%, CCOC(=O)C1CCCN(S(=O)(=O)CCNC(=O)c2ccc(F)cc2)C1 (configuration not stated) -12.2%

Activity change, active:
COc1ccccc1C/C(N)=N/OC(=O)/C=C/c1ccccc1 -56.5%, Cc1ccc(C)c(S(=O)(=O)NCc2ccc(C(=O)N3CCN(c4ccccc4)CC3)cc2)c1 -62.8%, COc1ccccc1/C=C/CN1CCCC(CO)(CCc2ccccc2)C1 (configuration not stated) -93.9%, O=C1c2ccccc2/C(=C\C#Cc2ccccn2)N1c1ccccc1 -100%, N=C1SCC(=O)N1c1ncc(Cc2cccc(Cl)c2)s1 -103%, CC(NC(=O)/C(C#N)=C/c1ccc(Cl)c([N+](=O)[O-])c1)c1ccccc1 (configuration not stated) -97.9%, CCOC(=O)N1CCC(N(C(=O)Nc2ccc(Cl)c(Cl)c2)C(C)CC)CC1 (configuration not stated) -84.8%, CCc1ccc(NC(=O)CN2CCCN(S(=O)(=O)c3ccc(F)cc3)CC2)cc1 -59.2%, CCc1ccc2nc(N(CCCN(C)C)C(=O)c3ccc4c(c3)OCCO4)sc2c1 -61.9%, CC1CN(Cc2cn(C)nc2-c2ccc(Oc3ccccc3)cc2)CCN1C (configuration not stated) -64.4%, CCN(CC)S(=O)(=O)c1cccc(NC(=O)Nc2cccc(C(F)(F)F)c2)c1 -93.5%, COc1ccccc1N1CCc2c(C)nc3c(OC)cccc3c21 -71.7%, O=C(c1cc(-c2cccs2)nc2ccccc12)N1CCN(c2ccccc2O)CC1 -66.7%

Activity change, inconclusive:
COc1ccccc1NC(=O)Cn1c(C)cc(=O)c2cccc(OC)c21 -35.8%, O=C(CSc1nnc(Cc2cccs2)n1Cc1ccco1)Nc1cc(Cl)cc(Cl)c1 -34%, COc1ccc(CCn2ccc(O)c(Cc3ccc(Cl)cc3)c2=O)cc1OC -39.9%, CC1CN(C(=O)COc2ccc3ccccc3c2Br)CC(C)O1 (configuration not stated) -44.7%, COc1cc(NC(=O)COc2cc(C)cc3oc(=O)cc(C)c23)cc(OC)c1OC -42%, CC(=O)c1ccc(NC(=O)NCc2ccc(F)cc2)cc1 -33.9%, CCN1CCN(CCCNC(=O)c2cc3c(=O)[nH]c4ccccc4c3s2)CC1 -40.9%, COc1cc(/C=N\NC(=O)c2ccc(-c3ccccc3)cc2)cc(OC)c1O -35.4%, Cc1ccc(Cl)cc1-c1ccc(/C=N/n2cnnc2)o1 -34.5%, COCC(C)NC(=O)c1noc2c1CCc1cc(OC)ccc1-2 (configuration not stated) -34.3%, COc1ccc(Nc2cc(C)nc3ccccc23)cc1 -36%, Cc1c(CCOC(=O)C23CC4CC(CC(C)(C4)C2)C3)sc[n+]1CC(=O)c1ccccc1 -47.9%, Cc1cccc(/C=C/C(=O)c2cc(Br)ccc(=O)c2O)c1 -41.2%, Cc1ccc(C2=NN(C(=O)C3CCCO3)C(c3ccco3)C2)cc1 (configuration not stated) -38.7%, O=C(CCN1C(=O)/C(=C\c2cccc(Br)c2)SC1=S)N1CCOCC1 -35%, Cc1cccc(CSCCNC(=S)Nc2ccccc2)c1 -30.2%, Fc1ccc2[nH]c3c(N4CCc5ccccc5C4)ncnc3c2c1 -40.1%, COc1ccc(C(=O)c2c(C(F)(F)F)oc3c2C(=O)c2ccccc2C3=O)cc1 -37.5%, COc1ccc(CCN(C)C(=O)c2ccc(C)c(S(=O)(=O)N3CCCCC3)c2)cc1OC -40.6%, Cc1cc(C)cc(NC(=S)NCc2ccc3[nH]c4c(c3c2)CCCC4)c1 -30.3%, CCN(c1ccc(OC)cc1)S(=O)(=O)c1ccc2c(c1)NC(=O)CS2 -41.7%, CN1CCN(CCCC(=O)c2ccc(C3CCCC3)cc2)CC1 -45.9%, Cc1ccc(NCC(=O)c2ccccc2)cc1Cl -31.9%, Cc1cnc2c(N)cc(C)c(C)c2c1 -37.8%, COC(=O)c1cccc(NC(=O)CN(c2ccc3c(c2)OCO3)S(C)(=O)=O)c1C -36.1%, CC(=O)Nc1ccc(S(=O)(=O)NCC(=O)OCc2ccccc2)cc1 -45.5%
